# Among all 310,000 compounds or so, about 2,200 (0.71%) showed an effect of 50% or more. The effect is printed as a negative number. The list shows a part of the results.
# Biological target: human ether-à-go-go-related gene (hERG) potassium channel (human, UniProt Q12809)
# Assay: primary screen, population patch clamp on CHO cells stably expressing hERG
# human ether-à-go-go-related gene (hERG) potassium channel, sequence (Q12809 whole entry, looked up): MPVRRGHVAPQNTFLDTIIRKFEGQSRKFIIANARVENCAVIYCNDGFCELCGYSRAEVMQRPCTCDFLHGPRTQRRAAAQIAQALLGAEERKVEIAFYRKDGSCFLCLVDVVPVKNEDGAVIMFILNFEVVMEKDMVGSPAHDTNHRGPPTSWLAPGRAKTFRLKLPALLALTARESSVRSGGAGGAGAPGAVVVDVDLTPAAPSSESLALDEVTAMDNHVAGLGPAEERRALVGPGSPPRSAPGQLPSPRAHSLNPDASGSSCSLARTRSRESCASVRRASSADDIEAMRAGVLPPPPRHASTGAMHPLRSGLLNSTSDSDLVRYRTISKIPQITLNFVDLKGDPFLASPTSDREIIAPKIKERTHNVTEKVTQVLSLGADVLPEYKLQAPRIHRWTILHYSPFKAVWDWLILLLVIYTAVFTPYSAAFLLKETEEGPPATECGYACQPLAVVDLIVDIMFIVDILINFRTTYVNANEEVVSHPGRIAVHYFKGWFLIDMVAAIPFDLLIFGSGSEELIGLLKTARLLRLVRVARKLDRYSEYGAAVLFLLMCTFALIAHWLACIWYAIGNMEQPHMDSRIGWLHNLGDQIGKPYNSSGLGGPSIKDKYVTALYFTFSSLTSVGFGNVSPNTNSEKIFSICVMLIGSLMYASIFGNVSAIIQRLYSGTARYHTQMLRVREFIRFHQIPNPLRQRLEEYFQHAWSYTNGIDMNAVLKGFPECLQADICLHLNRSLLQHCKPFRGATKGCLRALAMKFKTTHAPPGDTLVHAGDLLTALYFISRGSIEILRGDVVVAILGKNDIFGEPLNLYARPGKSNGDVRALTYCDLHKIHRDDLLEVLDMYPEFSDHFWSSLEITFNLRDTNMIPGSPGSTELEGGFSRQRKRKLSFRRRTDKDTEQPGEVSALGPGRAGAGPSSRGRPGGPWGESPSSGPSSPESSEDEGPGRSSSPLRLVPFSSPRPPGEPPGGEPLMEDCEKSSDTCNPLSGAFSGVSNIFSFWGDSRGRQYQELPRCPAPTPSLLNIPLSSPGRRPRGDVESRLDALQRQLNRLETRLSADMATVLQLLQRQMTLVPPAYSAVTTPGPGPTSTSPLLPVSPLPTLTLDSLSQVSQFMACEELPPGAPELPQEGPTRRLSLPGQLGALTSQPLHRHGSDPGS
row,SMILES,"hERG current change (%, negative = inhibition) at 1uM [%]"
1,O=C(CN1CCN(S(=O)(=O)c2ccc(Cl)cc2)CC1)Nc1ccc2c(c1)OCCO2,6.44
2,CCOC(=S)N/C(=N\S(C)(=O)=O)c1ccccc1,0.681
3,Cc1ccn2c(=O)c(C(=O)NCCC3=CCCCC3)c(O)nc2c1,29.1
4,CCC(C)N(C(=O)CSc1nc(-c2ccccc2)cs1)C1CCS(=O)(=O)C1 (stereo not drawn),8.06
5,O=C(O)/C=C/c1ccccc1Oc1ccccc1,14.3
6,CC(C)Sc1nnc([C@@H]2CCCN2C(=O)OC(C)(C)C)o1,12.4
7,CN(C)S(=O)(=O)c1cccc(NC(=O)COC(=O)CNC(=O)c2cccc([N+](=O)[O-])c2)c1,-4.61
8,CCc1c(C)sc(NC(=O)c2cc(C)on2)c1C#N,5.33
9,C[C@@H](C(=O)NCC1CCCO1)N1C(=O)N2CCc3c([nH]c4ccccc34)[C@@]2(C)C1=O (stereo partly drawn),4.53
10,O=C(c1ccc(Cn2c(=O)[nH]c3ccsc3c2=O)cc1)N1CCN(c2ccccc2)CC1,9.59
11,COc1ccc(C(=O)NCCc2ccccc2F)cc1OC1CCN(C(C)=O)CC1,12.5
12,COc1cc(/C=N/NC(=O)c2c(-c3ccccc3)noc2C)ccc1O,7.58
13,CN1CCN(CCCNC(=O)CN2C(=O)COc3ccccc32)CC1,15.7
14,Cc1nnc(SCC(=O)NC2CC2)s1,6.18
15,O=C(CNC(=O)c1ccco1)Nc1ccc(F)cc1,-2.29
16,CC1CCN(C(=O)CCN2C(=O)/C(=C/c3cccs3)SC2=S)CC1,7.54
17,CC(=O)c1cccc(N(C(=O)CNC(=O)c2ccco2)C(C(=O)NC2CCCC2)c2ccco2)c1 (stereo not drawn),10.8
18,COc1ccc(S(=O)(=O)Nc2ccc3oc(C)c(C(C)=O)c3c2)cc1,21.5
19,COc1ccc(-c2c(O)c(C#N)c(-c3ccccc3)n(-c3ccc(OC)cc3)c2=O)cc1,9.11
20,CCOc1ccc(NC(=O)CN(C)C(=O)c2c(-c3ccccc3Cl)noc2C)cc1OCC,0.603
21,Cc1cc(C)cc(NC(=O)Nc2cc(-c3ccccc3)nn2C)c1,20.2
22,CC(=O)c1cccc(NC(=O)C23CC4CC(C2)CC(n2cncn2)(C4)C3)c1,9.18

row,SMILES,"hERG current change (%, negative = inhibition) at 1uM [%]"
1,CC(=O)N1c2ccc(S(=O)(=O)NC(CC(=O)O)c3ccc(Br)cc3)cc2CC1C (stereo not drawn),24.6
2,CC(CNCC1CCCO1)COc1cccc2ccccc12 (stereo not drawn),5.61
3,COc1ccccc1C(=O)N/C(=C\c1cn(S(=O)(=O)N(C)C)c2ccccc12)C(=O)NCCCN1CCOCC1,7.97
4,Cc1ccc(S(=O)(=O)c2nc(Nc3ccccc3C#N)sc2Cl)cc1,7.69
5,COc1ccc(C2N(c3ccccc3)C(=S)N3CCCN23)cc1 (stereo not drawn),11.1
6,CN(C)c1oc(-c2ccccc2)nc1C#N,2.37
7,CCOc1cc(C2NN=C(c3ccccc3)S2)ccc1OCc1ccccc1Cl (stereo not drawn),12.9
8,O=C(CN(C(=O)CCC(=O)Nc1ccccn1)C1CCCC1)NCc1ccccc1,4.06
9,O=C1Nc2ccc([N+](=O)[O-])cc2OC1CCN1CCN(Cc2ccc3c(c2)OCO3)CC1 (stereo not drawn),-4.99
10,COc1ccc(/C=C(/NC(=O)c2ccccc2)C(=O)N2CCC(C)CC2)cc1,3.37
11,O=C1OC(=O)C2C1[C@@H]1CC[C@H]2O1 (stereo partly drawn),16.3
12,C[C@@H](NC(=O)c1nc[nH]c1C(=O)N[C@@H](Cc1ccccc1)C(=O)OC(C)(C)C)c1ccccc1,15.3
13,COc1cccc(NC(=O)c2ccc(Cn3cc([N+](=O)[O-])cn3)o2)c1,-3.18
14,CCOc1cccc(/C=C/c2ccc3ccccc3n2)c1OC(C)=O,31.6
15,Cc1c(CCOC(=O)c2ccc(N3CCOCC3)c([N+](=O)[O-])c2)sc[n+]1CC#N.[Cl-],6.84
16,COCCN1C(=O)c2oc3c(C)cc(C)cc3c(=O)c2C1c1cccc(O)c1 (stereo not drawn),12.1
17,Cl.O.O=C1CC(=C(c2ccccc2)c2ccccc2)C(=O)N1CCN1CCN(c2cccc(Cl)c2)CC1,11.9
18,Nc1ccc(C(=O)N2CCCC2)cc1,7.82
19,CCOC(=O)c1ccc2ncc(C(=O)OCC)c(NCCN3CCOCC3)c2c1,-15.2
20,Cn1c(=O)c2cc(S(=O)(=O)Nc3cccc(F)c3)ccc2n(C)c1=O,11.7
21,O=C1C2C3c4ccccc4C(c4ccccc43)C2C(=O)N1c1cccnc1 (stereo not drawn),5.28
22,COc1ccc(NC(=O)NC2CCN(C(C)C)CC2)c(OC)c1,0.138

row,SMILES,"hERG current change (%, negative = inhibition) at 1uM [%]"
1,O=C(NCc1ccccc1)C1=C[C@H](c2ccccc2)C[C@H](OCc2ccc(CO)cc2)O1,5.85
2,Cc1cc(NC(=O)c2ccccc2)n(C)n1,15.5
3,C=CCOc1c(Br)cc(CNn2c(C)n[nH]c2=S)cc1OC,14
4,Cc1nnc(NCCc2ccccc2)c2ccccc12,7.24
5,CCC(C)N(C(=O)Cn1cnc2c1c(=O)n(C)c(=O)n2C)C1CCS(=O)(=O)C1 (stereo not drawn),17.5
6,O=[N+]([O-])c1ccc(Cl)c(/C=N/N2CCN(Cc3ccc(Cl)cc3)CC2)c1,-0.568
7,CC(Oc1ccc(Cl)cc1Cl)C(=O)NCCCN(C)C (stereo not drawn),0.712
8,O=c1oc2ccccc2c(NC(c2ccccc2)c2ccccc2)c1[N+](=O)[O-],2.24
9,CCN1CCN(C2=NC(=O)/C(=C/c3ccc(C)o3)S2)CC1,-9.05
10,Cc1ccc(NC(=O)c2nnn(CC(=O)Nc3ccccc3)c2N)cc1C,10.4
11,CCOC(=O)c1cnc(SCC(=O)NNC(=O)c2ccco2)nc1N,11.5
12,COc1ccc(OCCNC(=S)Nc2cccc3ccccc23)cc1,4.59
13,Cc1ccccc1S(=O)(=O)Cc1ccc(C(=O)NCCCN2CCC(C)CC2)o1,0.269
14,CC(C(=O)NCc1cccnc1)c1ccc([N+](=O)[O-])cc1 (stereo not drawn),5.41
15,CC1(C)CC(=O)C2=C(C1)c1c(ccc3ccccc13)NC2c1ccc(C(=O)O)cc1 (stereo not drawn),30.1
16,O=C(/C=C/c1ccccc1)N1CCN(c2ccc([N+](=O)[O-])c(N3CCOCC3)c2)CC1,-3.74
17,COC(=O)c1c(NC(=O)c2nc3nc(C)cc(C(F)F)n3n2)sc2c1CCC2,7.06
18,CN(Cc1c(C(=O)N/N=C/c2cccc(Cl)c2)nnn1-c1nonc1N)c1ccccc1,10.7
19,COc1ccc(NC(=S)N2CCc3ccccc3C2)cc1OC,7.27
20,CC1=C(C#N)C(Nc2ccc(C)cn2)(C(F)(F)F)C(=O)N1 (stereo not drawn),-9.19
21,Cc1ccc2c(c1)N(CC(=O)NCC1CCCO1)C(=O)CO2 (stereo not drawn),12.3
22,CC1Oc2ccccc2N(CC(=O)NCCCN2CCOCC2)C1=O (stereo not drawn),18.1

row,SMILES,"hERG current change (%, negative = inhibition) at 1uM [%]"
1,Cc1cc(=O)oc2c3c(cc(OCC(=O)NCc4ccco4)c12)OC(C)(C)CC3,-1.54
2,CCOC(=O)C1CCN(c2ncnc3c2cnn3-c2ccc(OC)cc2)CC1,5.05
3,O=C(CCC(=O)N1CCOc2ccccc21)NC1CCCCCC1,-2.32
4,CCOC(=O)C1C(=O)NC(c2ccccc2)=NC1c1ccc(O)c(OC)c1 (stereo not drawn),3.13
5,COc1cccc(NC(=O)CN(C)C(=O)Cn2c(=O)oc3ccccc32)c1,13.4
6,COc1ccc(OC)c(S(=O)(=O)N2C(C)CCCC2C)c1 (stereo not drawn),7.33
7,O=[N+]([O-])c1ccccc1N/N=C/c1cc2ccccc2nc1Cl,6.39
8,CCC(C)NC(=O)C(=O)NCC1CCCN1CC (stereo not drawn),2.12
9,O=C(C1CCC(=O)N1Cc1ccc(F)cc1)N1CCC2(CC1)OCCO2 (stereo not drawn),16.5
10,Cc1ccc2cc(C#N)c(N3CCCC3)nc2c1C,7.14
11,Cc1ccc(C)c(NC(=O)c2ncn[nH]2)c1,9.54
12,OCCNCCc1c[nH]c2ccc(OCc3ccccc3)cc12,4.99
13,C=CCn1c(Oc2ccc(C(=O)OC)cc2)nc2c1c(=O)n(C)c(=O)n2C,4.62
14,Cc1ccc(-c2cc(C(=O)Nc3cccnc3)c3ccccc3n2)o1,12
15,COc1ccc(-c2[nH]ncc2/C=N\NC(=O)c2ccc(Br)o2)cc1OC,6.1
16,CCS(=O)(=O)N1CCCC(C(=O)NC2CCCCC2)C1 (stereo not drawn),19.7
17,Cc1c(C(=O)N2CCCc3ccccc32)oc2ccccc12,13.1
18,CC12CCC(C(=O)N3CCC(Cc4ccccc4)CC3)(C(=O)C1=O)C2(C)C (stereo not drawn),10.1
19,Cc1ccnc2ccc(-c3nc4ccccc4o3)cc12,5.81
20,CC(C)(C)c1cc(Br)c(O)c(N=Nc2ccc(S(=O)(=O)N3CCOCC3)cc2)c1,7.41
21,Cc1cc(C)c(S(=O)(=O)NCCn2ccc3ccccc32)c(C)c1,16.1

# Source: PMC4336329 (PLoS ONE, 2015)
